# Measurements as given in PMC4336329 (PLoS ONE, 2015).
# Screen size: about 310,000 compounds; about 2,200 (0.71%) showed an effect of 50% or more. The effect is printed as a negative number. The list shows a part of the results.
# Target: human ether-à-go-go-related gene (hERG) potassium channel (human, UniProt Q12809)
# Assay: primary screen, population patch clamp on CHO cells stably expressing hERG
# Sequence of human ether-à-go-go-related gene (hERG) potassium channel (Q12809 whole entry, looked up): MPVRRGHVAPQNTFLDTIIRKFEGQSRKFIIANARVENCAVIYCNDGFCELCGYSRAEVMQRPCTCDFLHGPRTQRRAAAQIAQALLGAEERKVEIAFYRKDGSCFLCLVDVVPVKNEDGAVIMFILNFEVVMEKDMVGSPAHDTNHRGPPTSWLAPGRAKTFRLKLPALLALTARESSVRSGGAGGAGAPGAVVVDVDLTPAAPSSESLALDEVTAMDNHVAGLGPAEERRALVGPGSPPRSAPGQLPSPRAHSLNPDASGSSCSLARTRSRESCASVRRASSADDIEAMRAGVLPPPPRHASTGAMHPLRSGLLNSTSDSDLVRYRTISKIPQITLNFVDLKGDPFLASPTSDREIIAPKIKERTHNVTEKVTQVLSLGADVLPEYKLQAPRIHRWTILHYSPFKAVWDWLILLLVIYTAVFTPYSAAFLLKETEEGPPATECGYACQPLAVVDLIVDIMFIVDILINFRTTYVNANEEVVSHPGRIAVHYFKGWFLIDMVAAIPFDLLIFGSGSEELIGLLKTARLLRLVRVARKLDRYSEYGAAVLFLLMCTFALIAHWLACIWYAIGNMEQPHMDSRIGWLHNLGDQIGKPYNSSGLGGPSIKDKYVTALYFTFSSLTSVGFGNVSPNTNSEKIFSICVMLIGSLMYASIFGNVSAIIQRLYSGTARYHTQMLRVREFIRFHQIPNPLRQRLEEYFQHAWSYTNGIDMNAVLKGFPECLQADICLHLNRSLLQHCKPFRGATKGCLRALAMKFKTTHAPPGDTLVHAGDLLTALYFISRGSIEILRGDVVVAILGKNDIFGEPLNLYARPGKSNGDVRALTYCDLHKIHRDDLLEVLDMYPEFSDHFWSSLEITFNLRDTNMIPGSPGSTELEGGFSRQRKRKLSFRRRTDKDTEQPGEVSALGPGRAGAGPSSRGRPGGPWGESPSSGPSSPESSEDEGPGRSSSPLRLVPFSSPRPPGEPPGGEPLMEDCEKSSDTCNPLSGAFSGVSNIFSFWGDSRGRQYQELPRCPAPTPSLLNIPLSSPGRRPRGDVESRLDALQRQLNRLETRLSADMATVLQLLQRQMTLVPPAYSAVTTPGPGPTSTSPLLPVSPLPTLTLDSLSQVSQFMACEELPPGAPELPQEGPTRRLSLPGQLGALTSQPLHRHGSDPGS
row,SMILES,"hERG current change (%, negative = inhibition) at 1uM [%]"
1,CC(=O)Nc1cc(NC(C)=O)cc(C(=O)OCC(=O)c2ccc3c(c2)OCO3)c1,10.9
2,Nc1cc(N)nc(SCC(=O)NCc2ccco2)n1,4.79
3,Cc1nn(Cc2ccc(F)cc2)c(C)c1NC(=O)CCCn1nc([N+](=O)[O-])cc1C,10.7
4,N#Cc1ccc(OCC(O)CN2CCN(CC(O)COc3ccc(C#N)cc3)CC2)cc1 (stereo not shown),-91.3
5,CCCS(=O)(=O)N1CCN=C1SCc1cccc2ccccc12,3.2
6,CCOC(=O)N1CCC(NS(=O)(=O)c2ccc(NC(C)=O)c(Cl)c2)CC1,15.5
7,O=C(Nc1ccc(-n2cccc2)cc1)C1CC1,13.8
8,O=C(c1ccc(S(=O)(=O)N2CCOCC2)cc1)N1CCCc2ccccc21,12
9,O=C(CNC(=O)c1cccs1)OCC(=O)c1ccc(Br)cc1,9.68
10,O=C(CC1SC(N2CCCCC2)=NC1=O)Nc1cccc(C(=O)O)c1 (stereo not shown),3.53
11,CCCCOc1ccc(C(=O)N/C(=C\c2cccc([N+](=O)[O-])c2)C(=O)OC(C)C)cc1,14.3
12,COc1ccc(-n2cnc3c(sc4nccc(N(C)C)c43)c2=O)cc1,5.3
13,Cc1cc(C)c(S(=O)(=O)NCC(CCC(=O)O)C(F)(F)F)c(C)c1 (stereo not shown),8.25
14,C(=N\c1nccs1)/c1cccnc1,0.901
15,CC1(C)NC(=O)N(CC(O)CN2C(=O)NC(C)(C)C2=O)C1=O,17.6
16,N#Cc1c(Cl)nsc1NCCN1CCOCC1,13.8
17,Cc1ccc(-n2nc3c(c2NC(=O)c2ccco2)CS(=O)C3)cc1 (stereo not shown),11
18,O=C(NC1CCN(Cc2ccccc2)CC1)c1ccc2c(c1)OCCCO2,2.08
19,Cc1cc(C)c(NC(=O)CNC(=O)COC(=O)/C=C/c2cccs2)c(C)c1,4.77
20,CN(Cc1ccccc1)S(=O)(=O)c1csc(C(N)=O)c1,4.39
21,O=C(NNC(=O)c1ccncc1)c1ccccc1,13.4
22,COc1cccc(N2CC(NS(=O)(=O)c3cccs3)CC2=O)c1 (stereo not shown),14.7
23,COC(=O)COc1ccc(Oc2nc(SC)nc(N(C)C)n2)nn1,6.18

row,SMILES,"hERG current change (%, negative = inhibition) at 1uM [%]"
1,CCS(=O)(=O)Nc1ccc(-c2nnc(SCC(=O)OC)o2)cc1,13.5
2,COc1ccc(-c2noc(CSc3nnc(-c4ccncc4)n3-c3ccc(F)cc3)n2)cc1OC,2.83
3,O=c1[nH]c2ccc(NS(=O)(=O)c3ccc([N+](=O)[O-])cc3)cc2[nH]1,6.41
4,CC(Cc1cccs1)NC(=O)Nc1cccc(Cl)c1 (stereo not shown),9.05
5,Cc1ccc2cccc(OCc3cccc([N+](=O)[O-])c3)c2n1,7.24
6,CCCn1c(CN2CCCCC2C)nc2c1c(=O)n(C)c(=O)n2C (stereo not shown),9.55
7,Cc1ccccc1-c1nnc(Cc2ccccc2)o1,2.27
8,CC(NC(=O)C1CC12CCC2)c1ccccc1 (stereo not shown),7.09
9,COCCN(C(=O)C1CC1)c1nnc(-c2cccc(C)c2)s1,6.57
10,O=C(NCCNc1ccc([N+](=O)[O-])cc1)c1ccccc1Br,-22.8
11,CC(O)[C@H]1CNCCN1CC1(c2ccccc2)CC1 (stereo partly shown),0.796
12,O=S(=O)(NCC(c1cccnc1)N1CCOCC1)c1ccc(Cl)cc1 (stereo not shown),14.8
13,C=CCN(CC=C)C(=O)c1ccccc1NC(=O)c1ccccc1C,4.72
14,CCc1ccc(CNC(=O)CC2C(=O)NCCN2Cc2ccccc2F)nc1 (stereo not shown),14
15,O=S1(=O)CCO[C@H]2Cc3ccccc3[C@H]2N1Cc1ccccc1Br,0.613
16,O=C(CN1C(=O)NC(Cc2ccccc2)C1=O)Nc1ccc(OC(F)(F)F)cc1 (stereo not shown),4.21
17,Cc1cc(C)nc(OC(=O)c2c(Cl)cc(Cl)cc2Cl)n1,18.3
18,C=CCn1c(SCC(=O)NC(=O)c2cccc([N+](=O)[O-])c2)nnc1-c1ccccc1,8.34
19,CN(C)CCn1c(C(=O)Nc2ccccc2)cc2ccccc21.Cl,-33.1
20,CCC(C(=O)Nc1ccc(OC)c(Cl)c1)c1ccccc1 (stereo not shown),9.18
21,Cc1ccc(-c2nn(-c3ccccc3)c3[nH]c(=O)c(CNCc4ccccc4)cc23)cc1,16.9
22,O=C(Nc1cccc(Br)c1)c1ccc2c(c1)SC1=NS(=O)(=O)CCN12,7.1
23,COC(=O)[C@H](Cc1ccccc1)NC(=O)NCc1ccccc1OC,11.3

row,SMILES,"hERG current change (%, negative = inhibition) at 1uM [%]"
1,NC(N)=NC(=O)c1nc(Cl)c(N)nc1N,5.12
2,Cc1ccc2c(c1)C(=O)CC1(CCC(C(C)(C)C)CC1)O2 (stereo not shown),17.1
3,Cc1ccc(CN2CCN(C3CSCCSC3)CC2CCO)cc1 (stereo not shown),-15.2
4,Cc1cc(=O)c2c([nH]1)c(C)cc1[nH]c(C)c(C)c12,10.6
5,Cc1cc(C=O)c(C)n1C1CC1,5.75
6,O=c1cc(N2CCN(c3ccccc3F)CC2)[nH]c(=O)n1-c1ccc(Br)cc1,-32.1
7,COC(=O)C1=C(C)N(CCCC(=O)O)C(=O)NC1c1ccccc1OS(=O)(=O)c1ccccc1[N+](=O)[O-] (stereo not shown),15.6
8,Cc1nc(N2CCN(C)CC2)c2c(C)c(C(=O)Nc3ccc(F)cc3)sc2n1,-18.9
9,COC(=O)c1oc2c(c1C)C(=O)CC(C)(C)C2,13.1
10,COc1cc2c(cc1OC)C(c1ccco1)CC(=O)N2 (stereo not shown),4.72
11,Cc1cccc2nc(CSCc3ccco3)cn12,0.819
12,O=C(NCc1ccccc1Cl)C1CCN(S(=O)(=O)c2ccc(F)cc2)CC1,-9.56
13,CN=C1c2c(-c3ccccc3)c3cc(OC)ccc3n2CCN1C.Cl,-31.6
14,COc1cccc(NC(=O)Nc2ccccc2SC)c1,-0.158
15,COc1cc(OC)c(CN2CCC(Cc3ccccc3)CC2)cc1Br,-32.2
16,Cc1csc(-c2cnn(-c3ccccc3)c2NC(=O)c2cccc(F)c2)n1,-5.07
17,COc1ccc(C(=O)Nc2ccc(N3CCN(C(=O)c4cccs4)CC3)cc2)cc1Br,4.71
18,Cc1ccccc1NC(=S)NCc1ccccc1,3.9
19,O=C(CCCOc1ccccc1)N1CCN(S(=O)(=O)c2ccc(Cl)cc2)CC1,9.06
20,CN1CCN(CCCNC(=O)c2ccc3c(c2)N(Cc2ccccc2)CCS3)CC1,-2.68
21,COc1ccc(N2CC(C(=O)N/N=C/c3ccccc3)CC2=O)cc1 (stereo not shown),3.88
22,O=C(CN(C(=O)Cn1nnc(-c2ccccc2F)n1)c1cccc2c1CCCC2)NCc1ccccc1,13.2
23,COc1cc(C)c(Br)cc1S(=O)(=O)NCc1ccccc1,11.9

row,SMILES,"hERG current change (%, negative = inhibition) at 1uM [%]"
1,CCc1c(O)nc(SCC(=O)Nc2ccccc2OC)n(-c2ccccc2C)c1=O,9.74
2,Cc1ccc(NC(=O)CCn2c(=O)oc3ccccc32)cc1,6.25
3,CCOc1cc(/C=C2\C(=O)N(c3cccc(C(F)(F)F)c3)C(=O)c3ccccc32)ccc1O,-7.19
4,CC(C)CN(C(=O)c1cc(=O)[nH]c2ccccc12)c1c(N)n(Cc2ccccc2)c(=O)[nH]c1=O,7.97
5,CCO/C([O-])=N/c1c[n+](N2CCOCC2)no1,15.4
6,O/N=C/c1ccc(-c2ccccc2OC(F)(F)F)o1,13.6
7,CN(Cc1cccc(F)c1)C(=O)c1cccc(S(=O)(=O)N2CCN(Cc3ccccc3)CC2)c1,6.94
8,Nc1ccc2oc(-c3ccccn3)nc2c1,16.6
9,CCOC(=O)c1ccc(NC(=O)N2CCN(CCc3ccccc3)CC2)cc1,-23.8
10,CC(NC(=O)CN1CCCC1)C12CC3CC(CC(C3)C1)C2.Cl (stereo not shown),-16
11,Cn1nc(C(F)(F)F)cc1-c1ccc(/C=C(\C#N)C(=O)c2cccc(C(F)(F)F)c2)s1,11.9
12,CCCCn1c(NCc2cccs2)nc2ccccc21,-10.1
13,COc1ccc(CNC(=S)Nc2ccc(OC)cc2)cc1,6.92
14,O=C(NNC(=O)c1ccc(-c2ccccc2)cc1)c1ccccc1,8.77
15,CCc1ccc(/C=C2/C(=O)N(C)C(=S)N2CC(=O)OC)s1,11.6
16,Cc1ccc(S(=O)(=O)NCc2ccc3c(c2)cc(C)n3C)cc1,21.8
17,CCOC(=O)CCc1nn(C)c(=O)c2ccccc12,1.87
18,CCOC(=O)C1CCN(CC(O)COc2ccc(C(C)=O)cc2)CC1.Cl (stereo not shown),-30.4
19,O=C(CN1CCOCC1)Nc1cccc(C(F)(F)F)c1,7.21
20,COc1cc(COc2ccc3c(C)c(CCC(=O)O)c(=O)oc3c2)cc(OC)c1OC,15.5
21,CSC1=C(C#N)C(c2ccncc2)C(C(=O)Nc2ccccc2)=C(C)N1 (stereo not shown),5.44
22,COc1ccc2ccccc2c1/C=N\NC(=O)c1ccc(C)s1,14.6
